Test results reported in the RNAGym collection of RNA variant scans (doi:10.7554/elife.90254).
Read counts are not given, so values of variants with three or more changes are uncertain.

B1: OR4K15 (parent)
chain: GUUAACGGUCAUAGGCCAUGGAAACUAGGAGCACCAUUUCGCUGCCAGUGAAGAAAUGAACAAAGAAAAUCUGGGCCAGGCAGGCAUCAAAAGAAAUAGUCUUGCGCUCAACCAGAAAGUCUGUAAUCAUUUUAAGGGUA

Variants of: B1
Experiment: self-cleavage, relative activity (ratio to wild type); higher = more cleavage; in vitro, sequencing; the parent is a self-cleaving ribozyme

| Variant | self-cleavage |
| --- | --- |
| U37A A52G A59U U108A | 0 |
| U37A A66G A94G | 1.88 |
| A33G U38C A91U A118G | 0.99 |
| A33G U49C U87C | 0.55 |
| U37C A66G A96U | 1.55 |
| A36G U49C A68G A86G A89G A117G | 1.36 |
| A36C U87C U131C | 0.77 |
| A33U A51G C105U | 0.74 |
| A36U U37C G119U | 1.38 |
| A36G A55G A129G | 1.12 |
| C35U A63G A69C A90G | 1.24 |
| U37A U38C A82U A118G U133A | 0.18 |
| A36G A66G A92G U100C A110G A129G | 0.17 |
| A36U A52G A66G | 1.49 |
| A33U A52U A66G | 1.31 |
| A33G U37C A135U | 1.18 |
| A33U G50A U130C | 1.17 |
| U37C A55G A111G | 0.03 |
| A36G A51G A60G | 0.57 |
| U37A A78G U120A | 0.21 |
| U37C A54G A60G G75C G136A | 0.16 |
| A36G A51U A68G | 1.39 |
| A36G U39A A62G A63G A78G | 0.34 |
| A36U U70C U102C | 1.39 |

| Variant | self-cleavage |
| --- | --- |
| U37C U39C A60G A91G | 0.73 |
| U37C A67G U97C A114G | 0.24 |
| A36U A47G A94G U130C | 0.65 |
| C35A A54G A60G A66G A69G | 0.63 |
| C34U A92U A95C U108C | 0.02 |
| A36G A56G G79U | 0.12 |
| A36G U37C U132G | 1.81 |
| A33U A89U U108C A111G A116G | 0.01 |
| A36C U39C A52G A126G | 0.94 |
| U37C G84U A89G A116G U122C | 0.05 |
| A36G A47G A62G A117G | 0.84 |
| A36G A95G U103C U124C | 1.34 |
| A36G U43C C61G | 1.43 |
| C35A A129G A135G | 0.49 |
| A33G U37C A89G | 1.96 |
| A36U A59U A67G | 0.65 |
| U37C A67G U72C U130C | 0 |
| U37C A54G U103C U120C | 0.94 |
| A33U U49C A51G A90G | 1.5 |
| U37C A60G A90G U103C | 0.24 |
| A36G A59G A134G | 0.47 |
| A33U U49C A55G A56G A117G | 1.57 |
| U37C A92G C112U | 0.02 |
| U37C A59U A96G | 2.05 |

| Variant | self-cleavage |
| --- | --- |
| C34U A60G A82G | 0.68 |
| A36G A55U G58U | 0.62 |
| A33G U39A U49C A94G | 1.43 |
| C34U A59G A68G A95U A98G | 0.19 |
| U37C A47G A67G A95G | 1.68 |
| A36G A69G U70C A96G | 0.31 |
| A36G A54G A110G U132C | 0.45 |
| C35U U37C U97C U130C | 0.51 |
| A36U A92U C107A | 0 |
| A33U A96G A129G | 2.25 |
| A33G U43C A98G | 0.52 |
| A33U A96G U102A A135G | 0.18 |
| A36U A51G A62U A94C A116G | 0.37 |
| A33U U37C U43C A68G A116G | 1.29 |
| A36G A59U C107U | 0 |
| A33G U38C A47G | 0.89 |
| U37C A110G C113U G138A | 0.03 |
| A36U A59G U100A | 0.73 |
| U37C A62U A67U A114U | 0.23 |
| U37C A95G A96G | 0.96 |
| A36G A52G A60G A90G U139A | 0.23 |
| A36C A64G U100C A117G | 2.65 |
| C34U U72C A78G A129G | 0.14 |
| A33U U38C A60U A116G | 1.16 |

| Variant | self-cleavage |
| --- | --- |
| U37C A59G A66G A129G | 1.07 |
| A36U A110G A117C | 0.06 |
| U37C A92G U132C A140U | 1.56 |
| A33U A91G A94G A110G A134U | 0.1 |
| A33G U87A C105U | 0.13 |
| U37C A62G U72C | 0.28 |
| U37A U43C U72C | 0.15 |
| A36G A68U A117G A134G | 1.98 |
| A33U A36G A78G A86G A91G | 0.05 |
| A33G U97C U102C | 1.6 |
| A33G U87C A98G | 1.73 |
| A33U A51G U102A | 0.74 |
| U37C A66G A118G | 0.59 |
| U37A U43C A111C A117G | 0.01 |
| A33U A92U U108C | 0.01 |
| U37C U38C A110G A117G A140G | 0.18 |
| A33U A60G A86G | 0.84 |
| U37C A67G U108C | 0.01 |
| A36G A63G A95G A110U | 1.54 |
| A36G A55G A94G A98G | 1.57 |
| U37A U72A A96G | 0.08 |
| A36G A52U A59G | 1.53 |
| A33U U39C A66G U108C | 0.03 |
| A33G U37C A52G U57A U108C | 0.04 |

| Variant | self-cleavage |
| --- | --- |
| C35A A66U A98G G119U | 0.87 |
| A33U A55G A90G U120C | 0.55 |
| U37C A52G A67G A68G | 1.97 |
| A36G U37C U39A U102A | 0.87 |
| U37C U38A A96G A111C | 0 |
| A36U A67G U102C | 1.92 |
| A33U A64G U127C | 1.1 |
| A33G U72C A78C U131C | 0.02 |
| U37C A54G A82G | 1.23 |
| A36U A69G A118G A134G A135G | 0.74 |
| A36G U37C A56G A126U | 1.43 |
| U37C A56G U57C U130C | 1.29 |
| A36U A59G A64G | 1.89 |
| A36G A82C U122C A126G | 0.02 |
| A36U A69G G75A | 0.09 |
| A33U A90G A114G | 0.11 |
| U37C U39C U49C U100A C105U | 0.06 |
| C34U A52G A60G | 1.42 |
| A33G U72A A78U A94U | 0.13 |
| U37C A47C A54G A82U | 0.17 |
| A36U A52G U70C | 0.36 |
| A33G U38C U39C A67G A117G U124C | 0.57 |
| A36G A52U A118G | 1.29 |
| A36G U39A U49C G93U U130C | 0.79 |

| Variant | self-cleavage |
| --- | --- |
| A33U A47G A91G U130C | 0.36 |
| U37C A69G U87C U127A | 1.15 |
| A33U A90G U130A | 0.7 |
| C34G A51G A55G | 2.23 |
| A36G A51G A92G A95G | 3 |
| A33G U97C A98G U108C | 0 |
| A36G A47C C81U | 0.32 |
| U37C A111G U120A | 0.02 |
| C34A A78U A92G | 0.64 |
| C34G C61A A63G A95G | 1.3 |
| A36U A54G U57A A59G U97C U122G | 1.87 |
| U37C A52G A54G A56G A90G A118G A135U | 0.21 |
| A36U U72A A89U | 0 |
| C35U A60U G75A A116U | 0.03 |
| U37C A56G U72C | 0.25 |
| A36G G48A A95G A126U U127C | 1.38 |
| A33U U38A A63G U72A | 0.69 |
| A33G U122C U130C U131C A135G | 0 |
| U37C A47U U72C A78U C105A | 0.02 |
| A36G A69G A111G A116U A118U | 0 |
| A36G A59G U139C | 1.14 |
| A36U A47U U100C C109U | 0.68 |
| U37C A54G U127C A129G | 0.62 |
| U37C A62G A91G | 1.55 |

| Variant | self-cleavage |
| --- | --- |
| A33U U37C A56G C61U A95G U131A | 1.71 |
| A36U A60G U103C A110G G136A | 0.1 |
| U37C A89U A95G U102C | 2.76 |
| U37C A118U A134G | 0.22 |
| A36U A54G U72C A96G U122C | 0.04 |
| A33G U39A U103C A110G U133C | 0.07 |
| A36G A62G A110G A117G | 0.17 |
| A36G A89U A95G G104A | 0.28 |
| A33U G75A A91G | 0.1 |
| U37C A66G U72A A111G | 0.02 |
| C34U A47U U108C | 0 |
| A36G G73A A116G A118G U124A | 0.01 |
| A36C G65A A78U A89C U97C A114G A129G | 0.01 |
| U37C A94G G119A | 1.84 |
| A36U A66U U131C | 1.33 |
| A33U A82U U139C | 0.2 |
| A33G U39C A47G A96G | 0.58 |
| C34U U87C A98G G99A | 0.33 |
| A36U A54G A86G | 2.52 |
| A33U U49A A114U A125G | 0.01 |
| A36G C45U A47G A52G A59G A67G A68G U127C U131C | 1.46 |
| U37C A82U C105U | 0.16 |
| A36G A78U C107U A125G | 0.01 |
